# Reference: the supplement of paper PMC10037445
# Several values for one entry are separate records, joined by “and”; a condition that tells them apart may be missing. Equal values may be shown once. Over roughly 2,900 compounds, “IRF Lucia reporter activity, fold change vs agonist alone” has its median near 0.9; the highest 2% begin near 2.8. This is one part of the list.
# Columns and labels:
# [1] = tested on: RAW-Dual; assay: IRF Lucia reporter activity, fold change vs agonist alone; higher = enhanced IRF activity; conditions: library stock concentration (final ~1000-fold dilution): 10 mM, agonist: MPLA (TLR4) […]
# Method in brief: (§1)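 After 50 nL of library stock was delivered by pin tool to RAW-Dual macrophages (50,000 cells/well, DMEM, 384-well plates), a PRR agonist was added 1 h later and the plates were kept at 37 °C, 5% CO2. Twenty hours later, IRF was read from supernatant by QuantiLuc luminescence and NF-κB by QuantiBlue absorbance at 620 nm. Reporter activity is stated as fold change over agonist-alone wells. Wells with IncuCyte confluency under 70% of agonist controls in both mask sets were counted as cytotoxic.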
# [2] = tested on: RAW-Dual; assay: IRF Lucia reporter activity, fold change vs agonist alone; cytotoxicity flag (confluency mask): not cytotoxic; higher = enhanced IRF activity
# Method in brief: as §1
# [3] = tested on: RAW-Dual; assay: IRF Lucia reporter activity, fold change vs agonist alone; cytotoxicity flag (confluency mask): cytotoxic (confluency <70% of control); higher = enhanced IRF activity
# Method in brief: as §1
# [4] = cytotoxicity flag (confluency mask): not cytotoxic
# [5] = agonist: 3'3'-cGAMP (STING) 10 ug/mL
# [6] = cytotoxicity flag (confluency mask): cytotoxic (confluency <70% of control)
smiles,measurement,setting,value
CNC(=O)c1ccccc1Nc1nc(Nc2ccc(N3CCOCC3)cc2OC)ncc1Cl,IRF Lucia reporter activity,[1]; [4],0.232
CNC(=O)c1ccccc1Nc1nc(Nc2ccc(N3CCOCC3)cc2OC)ncc1Cl (library stock concentration (final ~1000-fold dilution): 10 mM),IRF Lucia reporter activity,[2]; [5],0.0513
same,IRF Lucia reporter activity,[2]; agonist: LPS (TLR4) 0.1 ug/mL,0.103
CCOC(=O)c1ncn2c1CN(C)C(=O)c1cc(F)ccc1-2 (library stock concentration (final ~1000-fold dilution): 10 mM),IRF Lucia reporter activity,[2]; [5],1.03
same,IRF Lucia reporter activity,[2]; agonist: LPS (TLR4) 0.1 ug/mL,0.786
CCOC(=O)c1ncn2c1CN(C)C(=O)c1cc(F)ccc1-2,IRF Lucia reporter activity,[1]; [4],1.08
O=C(O)Cc1ccc(O)cc1 (library stock concentration (final ~1000-fold dilution): 10 mM),IRF Lucia reporter activity,[2]; [5],1.06
same,IRF Lucia reporter activity,[2]; agonist: LPS (TLR4) 0.1 ug/mL,1.31
CC(C(=O)O)c1cccc(C(=O)c2ccccc2)c1 (stereo not drawn) (library stock concentration (final ~1000-fold dilution): 10 mM),IRF Lucia reporter activity,[2]; [5],1.06
same,IRF Lucia reporter activity,[2]; agonist: LPS (TLR4) 0.1 ug/mL,1.01
CC(C(=O)O)c1cccc(C(=O)c2ccccc2)c1 (stereo not drawn),IRF Lucia reporter activity,[1]; [4],0.998
CCCCN(Cc1ccc(C(=O)NO)cc1)C(=O)Nc1ccccc1,IRF Lucia reporter activity,[1]; [4],1.55
CCCCN(Cc1ccc(C(=O)NO)cc1)C(=O)Nc1ccccc1 (library stock concentration (final ~1000-fold dilution): 10 mM),IRF Lucia reporter activity,[2]; [5],0.0591
same,IRF Lucia reporter activity,[2]; agonist: LPS (TLR4) 0.1 ug/mL,1.7
COc1cc2nc(N3CCN(C(=O)C4CCCO4)CC3)nc(N)c2cc1OC.Cl (stereo not drawn) (library stock concentration (final ~1000-fold dilution): 10 mM),IRF Lucia reporter activity,[2]; [5],1.07
same,IRF Lucia reporter activity,[2]; agonist: LPS (TLR4) 0.1 ug/mL,1.14
COc1cc2nc(N3CCN(C(=O)C4CCCO4)CC3)nc(N)c2cc1OC.Cl (stereo not drawn),IRF Lucia reporter activity,[1]; [4],1.04
Cn1c(=O)cc(C(=O)Nc2ccc3c(c2)OCCO3)c2ccccc21 (library stock concentration (final ~1000-fold dilution): 10 mM),IRF Lucia reporter activity,[2]; [5],0.734
same,IRF Lucia reporter activity,[2]; agonist: LPS (TLR4) 0.1 ug/mL,0.824
Cn1c(=O)c(Oc2ccc(F)cc2F)cc2cnc(NC(CCO)CCO)nc21 (library stock concentration (final ~1000-fold dilution): 10 mM),IRF Lucia reporter activity,[2]; [5],0.851
same,IRF Lucia reporter activity,[2]; agonist: LPS (TLR4) 0.1 ug/mL,1.17
c1cc(-c2cnn3cc(-c4ccc(N5CCNCC5)cc4)cnc23)c2cccnc2c1,IRF Lucia reporter activity,[1]; [6],0.0402
c1cc(-c2cnn3cc(-c4ccc(N5CCNCC5)cc4)cnc23)c2cccnc2c1 (library stock concentration (final ~1000-fold dilution): 10 mM),IRF Lucia reporter activity,[3]; [5],0.0227
same,IRF Lucia reporter activity,[3]; agonist: LPS (TLR4) 0.1 ug/mL,0.153
CC1(C)OC2COC3(COS(N)(=O)=O)OC(C)(C)OC3C2O1 (stereo not drawn) (library stock concentration (final ~1000-fold dilution): 10 mM),IRF Lucia reporter activity,[2]; [5],0.946
same,IRF Lucia reporter activity,[2]; agonist: LPS (TLR4) 0.1 ug/mL,1.04
CC1(C)OC2COC3(COS(N)(=O)=O)OC(C)(C)OC3C2O1 (stereo not drawn),IRF Lucia reporter activity,[1]; [4],0.753
Cc1cccc(C)c1N(CC(=O)Nc1ccc(-c2ncon2)cc1)C(=O)C1CCS(=O)(=O)CC1 (library stock concentration (final ~1000-fold dilution): 10 mM),IRF Lucia reporter activity,[2]; [5],1.04
same,IRF Lucia reporter activity,[2]; agonist: LPS (TLR4) 0.1 ug/mL,0.693
Cc1cccc(C)c1N(CC(=O)Nc1ccc(-c2ncon2)cc1)C(=O)C1CCS(=O)(=O)CC1,IRF Lucia reporter activity,[1]; [4],1.05
COc1ccc(/C=C\c2cc(OC)c(OC)c(OC)c2)cc1O (library stock concentration (final ~1000-fold dilution): 10 mM),IRF Lucia reporter activity,[2]; [5],0.102
same,IRF Lucia reporter activity,[2]; agonist: LPS (TLR4) 0.1 ug/mL,1.72
O=C(c1ccccc1)C(O)O,IRF Lucia reporter activity,[1]; [4],1.08
O=C(c1ccccc1)C(O)O (library stock concentration (final ~1000-fold dilution): 10 mM),IRF Lucia reporter activity,[2]; [5],1.01
same,IRF Lucia reporter activity,[2]; agonist: LPS (TLR4) 0.1 ug/mL,1.43
C=CC(=O)Nc1ccc2ncnc(Nc3ccc(OCc4cccc(F)c4)c(Cl)c3)c2c1.Cc1ccc(S(=O)(=O)O)cc1 (library stock concentration (final ~1000-fold dilution): 10 mM),IRF Lucia reporter activity,[2]; [5],0.56
same,IRF Lucia reporter activity,[2]; agonist: LPS (TLR4) 0.1 ug/mL,0.638
C=CC(=O)Nc1ccc2ncnc(Nc3ccc(OCc4cccc(F)c4)c(Cl)c3)c2c1.Cc1ccc(S(=O)(=O)O)cc1,IRF Lucia reporter activity,[1]; [4],0.821
COc1cc(C(C)=O)ccc1OCCCN1CCC(c2noc3cc(F)ccc23)CC1 (library stock concentration (final ~1000-fold dilution): 10 mM),IRF Lucia reporter activity,[2]; [5],1.06
same,IRF Lucia reporter activity,[2]; agonist: LPS (TLR4) 0.1 ug/mL,0.959
COc1cc(C(C)=O)ccc1OCCCN1CCC(c2noc3cc(F)ccc23)CC1,IRF Lucia reporter activity,[1]; [4],0.754
Cc1c[nH]c(-c2cnc(NCCNc3ccc(C#N)cn3)nc2-c2ccc(Cl)cc2Cl)n1.Cl,IRF Lucia reporter activity,[1]; [4],0.336
Cc1c[nH]c(-c2cnc(NCCNc3ccc(C#N)cn3)nc2-c2ccc(Cl)cc2Cl)n1.Cl (library stock concentration (final ~1000-fold dilution): 10 mM),IRF Lucia reporter activity,[2]; [5],0.424
same,IRF Lucia reporter activity,[2]; agonist: LPS (TLR4) 0.1 ug/mL,0.208
O=C1OC(=O)C2C3CCC(O3)C12 (stereo not drawn) (library stock concentration (final ~1000-fold dilution): 10 mM),IRF Lucia reporter activity,[2]; [5],1.33
same,IRF Lucia reporter activity,[2]; agonist: LPS (TLR4) 0.1 ug/mL,1.72
O=C1OC(=O)C2C3CCC(O3)C12 (stereo not drawn),IRF Lucia reporter activity,[1]; [4],1.18
CCOC(=O)n1ccn(C)c1=S (library stock concentration (final ~1000-fold dilution): 10 mM),IRF Lucia reporter activity,[2]; [5],1.09
same,IRF Lucia reporter activity,[2]; agonist: LPS (TLR4) 0.1 ug/mL,1.23
CCOC(=O)n1ccn(C)c1=S,IRF Lucia reporter activity,[1]; [4],1.07
CC(C)=CCCC(C)(OC1OC(CO)C(O)C(O)C1O)C1CCC2(C)C1C(O)CC1C3(C)CCC(OC4OC(CO)C(O)C(O)C4OC4OC(CO)C(O)C(O)C4O)C(C)(C)C3CCC12C (stereo not drawn),IRF Lucia reporter activity,[1]; [4],1.14
CC(C)=CCCC(C)(OC1OC(CO)C(O)C(O)C1O)C1CCC2(C)C1C(O)CC1C3(C)CCC(OC4OC(CO)C(O)C(O)C4OC4OC(CO)C(O)C(O)C4O)C(C)(C)C3CCC12C (stereo not drawn) (library stock concentration (final ~1000-fold dilution): 10 mM),IRF Lucia reporter activity,[2]; [5],1.09
same,IRF Lucia reporter activity,[2]; agonist: LPS (TLR4) 0.1 ug/mL,1.39
COc1cc(N2CCC(N)CC2)ccc1Nc1ncc(Cl)c(-c2c[nH]c3ccccc23)n1,IRF Lucia reporter activity,[1]; [6],0.0216
COc1cc(N2CCC(N)CC2)ccc1Nc1ncc(Cl)c(-c2c[nH]c3ccccc23)n1 (library stock concentration (final ~1000-fold dilution): 10 mM),IRF Lucia reporter activity,[3]; [5],0.0212
same,IRF Lucia reporter activity,[3]; agonist: LPS (TLR4) 0.1 ug/mL,0.0182
Cl.O=C(c1ccc(OCCN2CCCCC2)cc1)c1c(-c2ccc(O)cc2)sc2cc(O)ccc12 (library stock concentration (final ~1000-fold dilution): 10 mM),IRF Lucia reporter activity,[2]; [5],0.779
same,IRF Lucia reporter activity,[2]; agonist: LPS (TLR4) 0.1 ug/mL,0.326
Cl.O=C(c1ccc(OCCN2CCCCC2)cc1)c1c(-c2ccc(O)cc2)sc2cc(O)ccc12,IRF Lucia reporter activity,[1]; [4],0.813
CC(C)N1CCN(Cc2cnc(-c3cc(-c4cccc5[nH]ccc45)cc4[nH]ncc34)o2)CC1 (library stock concentration (final ~1000-fold dilution): 10 mM),IRF Lucia reporter activity,[2]; [5],0.609
same,IRF Lucia reporter activity,[2]; agonist: LPS (TLR4) 0.1 ug/mL,1.42
CC(C)(OC1OC(CO)C(O)C(O)C1O)C1Cc2cc3ccc(=O)oc3cc2O1 (stereo not drawn) (library stock concentration (final ~1000-fold dilution): 10 mM),IRF Lucia reporter activity,[2]; [5],1.05
same,IRF Lucia reporter activity,[2]; agonist: LPS (TLR4) 0.1 ug/mL,1.16
CN1C(=O)C(NC(=O)c2cc(Cc3ccccc3)on2)COc2ccccc21 (stereo not drawn) (library stock concentration (final ~1000-fold dilution): 10 mM),IRF Lucia reporter activity,[2]; [5],0.896
same,IRF Lucia reporter activity,[2]; agonist: LPS (TLR4) 0.1 ug/mL,1.38
Cc1ccccc1OCC(O)CO (stereo not drawn),IRF Lucia reporter activity,[1]; [4],1.13
Cc1ccccc1OCC(O)CO (stereo not drawn) (library stock concentration (final ~1000-fold dilution): 10 mM),IRF Lucia reporter activity,[2]; [5],1.01
same,IRF Lucia reporter activity,[2]; agonist: LPS (TLR4) 0.1 ug/mL,1.42
O=C1CN(/N=C/c2ccc([N+](=O)[O-])o2)C(=O)N1,IRF Lucia reporter activity,[1]; [4],1.1
O=C1CN(/N=C/c2ccc([N+](=O)[O-])o2)C(=O)N1 (library stock concentration (final ~1000-fold dilution): 10 mM),IRF Lucia reporter activity,[2]; [5],1.06
same,IRF Lucia reporter activity,[2]; agonist: LPS (TLR4) 0.1 ug/mL,1.13
O=C(O)c1cc(=O)cc(C(=O)O)o1,IRF Lucia reporter activity,[1]; [4],1.04
O=C(O)c1cc(=O)cc(C(=O)O)o1 (library stock concentration (final ~1000-fold dilution): 10 mM),IRF Lucia reporter activity,[2]; [5],1.03 and 1.14
same,IRF Lucia reporter activity,[2]; agonist: LPS (TLR4) 0.1 ug/mL,0.827 and 1.01
COc1cc(CCC(O)CC(O)CCc2ccc(O)c(OC)c2)ccc1O (stereo not drawn) (library stock concentration (final ~1000-fold dilution): 10 mM),IRF Lucia reporter activity,[2]; [5],0.889
same,IRF Lucia reporter activity,[2]; agonist: LPS (TLR4) 0.1 ug/mL,1.15
CN(C)CCOC(C)(c1ccccc1)c1ccccn1.O=C(O)CCC(=O)O (stereo not drawn) (library stock concentration (final ~1000-fold dilution): 10 mM),IRF Lucia reporter activity,[2]; [5],1.04
same,IRF Lucia reporter activity,[2]; agonist: LPS (TLR4) 0.1 ug/mL,1.25
CN(C)CCOC(C)(c1ccccc1)c1ccccn1.O=C(O)CCC(=O)O (stereo not drawn),IRF Lucia reporter activity,[1]; [4],1.17
Cl.Nc1ccn(C2OC(CO)C(O)C2O)c(=O)n1 (stereo not drawn) (library stock concentration (final ~1000-fold dilution): 10 mM),IRF Lucia reporter activity,[2]; [5],0.726
same,IRF Lucia reporter activity,[2]; agonist: LPS (TLR4) 0.1 ug/mL,0.906
Cl.Nc1ccn(C2OC(CO)C(O)C2O)c(=O)n1 (stereo not drawn),IRF Lucia reporter activity,[1]; [4],1
C/C(=C(\CCOP(=O)(O)O)SC(=O)c1ccccc1)N(C=O)Cc1cnc(C)nc1N (library stock concentration (final ~1000-fold dilution): 10 mM),IRF Lucia reporter activity,[2]; [5],1.02
same,IRF Lucia reporter activity,[2]; agonist: LPS (TLR4) 0.1 ug/mL,1.21
COc1ccc(C(=O)O)cc1O (library stock concentration (final ~1000-fold dilution): 10 mM),IRF Lucia reporter activity,[2]; [5],1.01
same,IRF Lucia reporter activity,[2]; agonist: LPS (TLR4) 0.1 ug/mL,1.22
COc1ccc(C(=O)O)cc1O,IRF Lucia reporter activity,[1]; [4],0.98
CCN(CC)C(=S)SSC(=S)N(CC)CC,IRF Lucia reporter activity,[1]; [4],0.279
CCN(CC)C(=S)SSC(=S)N(CC)CC (library stock concentration (final ~1000-fold dilution): 10 mM),IRF Lucia reporter activity,[2]; [5],1.58
same,IRF Lucia reporter activity,[2]; agonist: LPS (TLR4) 0.1 ug/mL,0.937
O=C1C(=Cc2cccnc2)C(=O)c2ccccc21,IRF Lucia reporter activity,[1]; [4],0.967
O=C1C(=Cc2cccnc2)C(=O)c2ccccc21 (library stock concentration (final ~1000-fold dilution): 10 mM),IRF Lucia reporter activity,[2]; [5],0.916
same,IRF Lucia reporter activity,[2]; agonist: LPS (TLR4) 0.1 ug/mL,1.17
